Assay results taken from the supplement of paper PMC12217912.
The list shows a part of the results. The full chains were built here from the parent and the listed change. Values near 0.05 are background.

B1: TEV protease; numbered along this chain (parent)
chain: MGESLFKGPRDYNPISSSICHLTNESDGHTTSLYGIGFGPFIITNKHLFRRNNGTLVVQSLHGVFKVKDTTTLQQHLVDGRDMIIIRMPKDFPPFPQKLKFREPQREERICLVTTNFQTKSMSSMVSDTSCTFPSGDGIFWKHWIQTKDGQCGSPLVSTRDGFIVGIHSASNFTNTNNYFTSVPKNFMELLTNQEAQQWVSGWRLNADSVLWGGHKVFMVKPEEPFQPVKEATQL

Variants of: B1
Experiment: raw area under fraction-flipped curve 0-4 h after induction (AUC4h, not background-subtracted), DNA-recorder readout of cleavage of the substrate (dimensionless); higher = more cleavage of the substrate by the protease variant
Conditions: temperature: 34 °C; time window: 0-4 h after rhamnose induction
Protocol: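 In vivo DNA recorder in E. coli TOP10(DE3) ΔrhaA at 34 °C. Each TEVp single-site mutant (parent TEVp 0) is paired with a single-site variant of the 7-mer TEVs (canonical ENLYFQ|S). The substrate sits between flexible linkers in a Bxb1-sfGFP-TEVs-SsrA fusion, so cleavage stabilises Bxb1 and speeds flipping of a recombination array, read by NGS. The value is the raw area under the fraction-flipped curve over 0-4 h after rhamnose induction (AUC4h), with ≥20 reads per time point. It is not background-subtracted; inactive controls average about 0.047.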
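Also: Bxb1 expression induced with 0.2% (w/v) L-rhamnose at OD600 near 0.5, cultures sampled hourly, flipped fraction per protease–substrate barcode pair counted by paired-end Illumina sequencing.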

Variant	area with substrate EALYFQS	area with substrate ECLYFQS	area with substrate EKLYFQS	area with substrate ELLYFQS	area with substrate ERLYFQS	area with substrate ESLYFQS	area with substrate EVLYFQS	area with substrate EDLYFQS	area with substrate EELYFQS	area with substrate EFLYFQS	area with substrate EMLYFQS	area with substrate EPLYFQS	area with substrate EGLYFQS	area with substrate EHLYFQS	area with substrate EILYFQS	area with substrate EWLYFQS	area with substrate EQLYFQS	area with substrate ETLYFQS	area with substrate EYLYFQS
MGESLFKGPRDYNPISSSICHLTNESDGHTTSLYGIGFGPFIITNKHLFRRNNGTLVVQSLHGVFKVKDTTTLQQHLVDGRDMIIIRMPKDFPPFPQKLKFREPQREEMICLVTTNFQTKSMSSMVSDTSCTFPSGDGIFWKHWIQTKDGQCGSPLVSTRDGFIVGIHSASNFTNTNNYFTSVPKNFMELLTNQEAQQWVSGWRLNADSVLWGGHKVFMVKPEEPFQPVKEATQL [R109M]	0.078	0.106	0.129	0.111	0.109	0.137	0.0808	–	–	–	–	–	–	–	–	–	–	–	–
MGESLFKGPRDYNPISSSICHLTNESDGHTTSLYGIGFGPFIITNKHLFRRNNGTLVVQSLHGVFKVKDTTTLQQHLVDGRDMIIIRMPKDFPPFPQKLKFREPQREEDICLVTTNFQTKSMSSMVSDTSCTFPSGDGIFWKHWIQTKDGQCGSPLVSTRDGFIVGIHSASNFTNTNNYFTSVPKNFMELLTNQEAQQWVSGWRLNADSVLWGGHKVFMVKPEEPFQPVKEATQL [R109D]	0.0625	0.0601	–	–	–	0.0956	0.0986	0.12	0.133	0.0975	0.107	0.112	–	–	–	–	–	–	–
MGESLFKGPRDYNPISSSICHLTNESDGHTTSLYGIGFGPFIITNKHLFRRNNGTLVVQSLHGVFKVKDTTTLQQHLVDGRDMIIIRMPKDFPPFPQKLKFFEPQREERICLVTTNFQTKSMSSMVSDTSCTFPSGDGIFWKHWIQTKDGQCGSPLVSTRDGFIVGIHSASNFTNTNNYFTSVPKNFMELLTNQEAQQWVSGWRLNADSVLWGGHKVFMVKPEEPFQPVKEATQL [R102F]	0.0655	–	–	0.06	0.037	0.0489	0.0485	0.0118	0.0559	0.0465	0.0454	–	0.0714	0.0413	0.0448	0.0456	–	–	–
MGESLFKGPRDYNPISSSICHLTNESDGHTTSLYGIGFGPFIITNKHLFRRNNGTLVVQSLHGVFKVKDTTTLQQHLVDGRDMIIIRMPKDFPPFPQKLKFLEPQREERICLVTTNFQTKSMSSMVSDTSCTFPSGDGIFWKHWIQTKDGQCGSPLVSTRDGFIVGIHSASNFTNTNNYFTSVPKNFMELLTNQEAQQWVSGWRLNADSVLWGGHKVFMVKPEEPFQPVKEATQL [R102L]	0.0591	0.0275	0.0468	–	0.0576	0.0421	0.0486	–	0.0559	–	0.0491	0.0362	–	–	0.0499	0.0719	0.0578	–	–
MGESLFKGPRDYNPISSSICHLTNESDGHTTSLYGIGFGPFIITNKHLFRRNNGTLVVQSLHGVFKVKDTTTLQQHLVDGRDMIIIRMPKDFPPFPQKLKFVEPQREERICLVTTNFQTKSMSSMVSDTSCTFPSGDGIFWKHWIQTKDGQCGSPLVSTRDGFIVGIHSASNFTNTNNYFTSVPKNFMELLTNQEAQQWVSGWRLNADSVLWGGHKVFMVKPEEPFQPVKEATQL [R102V]	0.0605	0.0509	0.0561	–	–	0.0932	–	0.0576	–	–	–	–	0.0598	0.0622	–	0.0715	–	0.0315	0.0507
MGESLFKGPRDYNPISSSICHLTNESDGHTTSLYGIGFGPFIITNKHLFRRNNGTLVVQSLHGVFKVKDTTTLQQHLVDGRDMIIIRMPKDFPPFPQHLKFREPQREERICLVTTNFQTKSMSSMVSDTSCTFPSGDGIFWKHWIQTKDGQCGSPLVSTRDGFIVGIHSASNFTNTNNYFTSVPKNFMELLTNQEAQQWVSGWRLNADSVLWGGHKVFMVKPEEPFQPVKEATQL [K98H]	0.133	0.117	0.102	0.105	0.102	0.104	0.103	0.118	0.155	–	0.107	–	–	–	0.0934	0.13	0.141	0.132	0.0938
MGESLFKGPRDYNPISSSICHLTNESDGHTTSLYGIGFGPFIITNKHLFRRNNGTLVVQSLHGVFKVKDTTTLQQHLVDGRDMIIIRMPKDFPPFPQKLKFREPQREERICLVGTNFQTKSMSSMVSDTSCTFPSGDGIFWKHWIQTKDGQCGSPLVSTRDGFIVGIHSASNFTNTNNYFTSVPKNFMELLTNQEAQQWVSGWRLNADSVLWGGHKVFMVKPEEPFQPVKEATQL [T114G]	0.117	0.14	–	0.0805	–	0.109	0.112	0.15	0.112	–	–	0.142	0.0854	–	0.0959	–	0.108	0.0898	0.0919
MGESLFKGPRDYNPISSSICHLTNESDGHTTSLYGIGFGPFIITNKHLFRRNNGTLVVQSLHGVFKVKDTTTLQQHLVDGRDMIIIRMPKDFPPFPQKLKFREPQREWRICLVTTNFQTKSMSSMVSDTSCTFPSGDGIFWKHWIQTKDGQCGSPLVSTRDGFIVGIHSASNFTNTNNYFTSVPKNFMELLTNQEAQQWVSGWRLNADSVLWGGHKVFMVKPEEPFQPVKEATQL [E108W]	0.0682	0.0604	0.0512	–	0.0599	0.0647	0.0866	–	–	0.0477	0.0617	–	0.0667	0.0679	–	–	0.0568	0.0641	–
MGESLFKGPRDYNPISSSICHLTNESDGHTTSLYGIGFGPFIITNKHLFRRNNGTLVVQSLHGVFKVKDTTTLQQHLVDGRDMIIIRMPKDFPPFPQKLKFREPQRERRICLVTTNFQTKSMSSMVSDTSCTFPSGDGIFWKHWIQTKDGQCGSPLVSTRDGFIVGIHSASNFTNTNNYFTSVPKNFMELLTNQEAQQWVSGWRLNADSVLWGGHKVFMVKPEEPFQPVKEATQL [E108R]	0.0635	–	0.0345	0.0648	0.0577	–	0.055	0.0755	–	–	0.0611	–	–	–	0.0641	–	0.0709	0.057	0.073
